Consider 7 molecules from publication PMC6280653.

Protein sequences, listed by entry. Tags and fused reporters are not part of them. Lines headed by an entry give the natural chain unless they say otherwise; changes in a name come on top.
UniProt Q969F9: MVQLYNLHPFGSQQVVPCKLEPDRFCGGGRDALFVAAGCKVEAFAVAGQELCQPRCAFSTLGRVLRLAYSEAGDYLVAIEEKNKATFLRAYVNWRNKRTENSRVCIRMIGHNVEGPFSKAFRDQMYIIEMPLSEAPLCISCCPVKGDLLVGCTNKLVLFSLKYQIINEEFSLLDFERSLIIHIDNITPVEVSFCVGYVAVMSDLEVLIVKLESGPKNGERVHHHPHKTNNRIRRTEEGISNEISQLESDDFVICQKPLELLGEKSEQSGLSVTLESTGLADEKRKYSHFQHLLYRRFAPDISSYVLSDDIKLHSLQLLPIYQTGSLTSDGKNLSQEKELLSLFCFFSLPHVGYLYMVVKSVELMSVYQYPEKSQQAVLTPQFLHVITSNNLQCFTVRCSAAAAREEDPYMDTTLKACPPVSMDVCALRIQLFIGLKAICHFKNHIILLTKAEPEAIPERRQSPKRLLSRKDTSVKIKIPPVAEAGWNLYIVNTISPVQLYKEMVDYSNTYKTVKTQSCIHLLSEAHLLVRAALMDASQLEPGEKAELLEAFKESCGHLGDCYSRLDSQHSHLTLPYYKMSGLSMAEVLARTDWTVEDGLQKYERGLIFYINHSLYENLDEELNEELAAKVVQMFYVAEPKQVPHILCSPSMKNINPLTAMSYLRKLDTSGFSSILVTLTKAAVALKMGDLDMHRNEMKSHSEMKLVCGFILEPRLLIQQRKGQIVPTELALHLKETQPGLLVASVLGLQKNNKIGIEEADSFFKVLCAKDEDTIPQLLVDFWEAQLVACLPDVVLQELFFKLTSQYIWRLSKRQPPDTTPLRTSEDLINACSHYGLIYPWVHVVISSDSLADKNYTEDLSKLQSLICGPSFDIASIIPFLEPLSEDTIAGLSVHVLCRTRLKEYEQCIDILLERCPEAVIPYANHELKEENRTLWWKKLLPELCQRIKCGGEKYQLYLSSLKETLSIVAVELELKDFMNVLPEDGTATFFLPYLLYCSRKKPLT
UniProt P07355: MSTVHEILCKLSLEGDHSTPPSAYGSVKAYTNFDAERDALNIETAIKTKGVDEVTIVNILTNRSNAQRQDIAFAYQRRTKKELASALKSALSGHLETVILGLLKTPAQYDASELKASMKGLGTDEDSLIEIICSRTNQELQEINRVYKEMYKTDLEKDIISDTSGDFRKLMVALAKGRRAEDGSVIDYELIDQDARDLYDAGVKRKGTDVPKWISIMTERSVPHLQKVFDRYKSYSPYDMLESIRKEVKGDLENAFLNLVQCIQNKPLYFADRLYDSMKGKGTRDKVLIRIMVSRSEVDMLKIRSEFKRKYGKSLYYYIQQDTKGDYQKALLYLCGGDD
UniProt Q91VB4: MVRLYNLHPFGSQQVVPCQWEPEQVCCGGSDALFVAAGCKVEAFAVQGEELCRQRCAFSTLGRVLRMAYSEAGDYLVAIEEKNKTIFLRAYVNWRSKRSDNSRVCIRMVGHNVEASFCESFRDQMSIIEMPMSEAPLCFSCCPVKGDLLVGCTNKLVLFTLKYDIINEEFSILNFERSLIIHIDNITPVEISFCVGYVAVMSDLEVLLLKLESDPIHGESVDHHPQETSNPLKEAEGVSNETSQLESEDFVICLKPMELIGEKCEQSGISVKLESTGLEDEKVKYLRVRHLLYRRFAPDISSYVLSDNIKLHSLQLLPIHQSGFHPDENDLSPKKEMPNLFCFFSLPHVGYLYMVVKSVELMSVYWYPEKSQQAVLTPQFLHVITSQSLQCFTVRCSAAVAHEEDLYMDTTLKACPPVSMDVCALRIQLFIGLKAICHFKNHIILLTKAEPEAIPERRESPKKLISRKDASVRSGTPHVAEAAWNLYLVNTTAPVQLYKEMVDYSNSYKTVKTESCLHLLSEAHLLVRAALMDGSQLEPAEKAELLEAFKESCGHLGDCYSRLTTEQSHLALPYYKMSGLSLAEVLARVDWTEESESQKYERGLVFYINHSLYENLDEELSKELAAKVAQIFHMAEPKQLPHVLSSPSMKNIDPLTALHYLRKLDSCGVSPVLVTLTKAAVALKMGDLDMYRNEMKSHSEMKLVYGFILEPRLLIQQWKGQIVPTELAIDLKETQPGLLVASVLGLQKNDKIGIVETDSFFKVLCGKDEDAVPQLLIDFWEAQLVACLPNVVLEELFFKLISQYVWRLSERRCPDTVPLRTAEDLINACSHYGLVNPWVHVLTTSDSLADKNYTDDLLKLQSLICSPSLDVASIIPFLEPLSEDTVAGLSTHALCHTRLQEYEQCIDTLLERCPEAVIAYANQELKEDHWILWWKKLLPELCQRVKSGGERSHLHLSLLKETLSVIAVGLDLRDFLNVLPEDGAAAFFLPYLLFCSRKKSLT
UniProt Q9UL45: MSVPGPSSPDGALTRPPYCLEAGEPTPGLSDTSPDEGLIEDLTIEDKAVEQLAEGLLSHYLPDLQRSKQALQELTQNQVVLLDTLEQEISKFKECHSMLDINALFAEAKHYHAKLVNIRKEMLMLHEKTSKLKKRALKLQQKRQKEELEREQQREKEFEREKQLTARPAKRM

In assay [1] the target is T1, 6xHis-Rab22A^WT (mouse) (UniProt P35285).
T1 sequence: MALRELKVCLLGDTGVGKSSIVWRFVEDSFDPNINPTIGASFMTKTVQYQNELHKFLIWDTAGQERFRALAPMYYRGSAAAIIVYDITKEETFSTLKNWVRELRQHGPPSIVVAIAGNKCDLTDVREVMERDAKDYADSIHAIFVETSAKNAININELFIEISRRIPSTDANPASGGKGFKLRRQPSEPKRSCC
The experiment in a line: pull-down; His-Rab22A^WT on Ni-NTA beads incubated with melanocyte lysate in RIPA buffer, 6-8 h, 4°C; immunoblot; the beads of Fig 5E were preloaded with nucleotide, here GTPγS (1 mM); only the target purified. Background: Immunoblotting shows a protein as a band on a membrane.

For assay [2], the target named is T1, 6xHis-Rab22A^WT (mouse). The experiment in a line: pull-down; His-Rab22A^WT on Ni-NTA beads incubated with HeLa cell lysate in RIPA buffer, 6-8 h, 4°C; immunoblot; only the target purified.
For assay [3], the target named is T2, His-K13^motor (human) (UniProt Q9H1H9).
T2 sequence: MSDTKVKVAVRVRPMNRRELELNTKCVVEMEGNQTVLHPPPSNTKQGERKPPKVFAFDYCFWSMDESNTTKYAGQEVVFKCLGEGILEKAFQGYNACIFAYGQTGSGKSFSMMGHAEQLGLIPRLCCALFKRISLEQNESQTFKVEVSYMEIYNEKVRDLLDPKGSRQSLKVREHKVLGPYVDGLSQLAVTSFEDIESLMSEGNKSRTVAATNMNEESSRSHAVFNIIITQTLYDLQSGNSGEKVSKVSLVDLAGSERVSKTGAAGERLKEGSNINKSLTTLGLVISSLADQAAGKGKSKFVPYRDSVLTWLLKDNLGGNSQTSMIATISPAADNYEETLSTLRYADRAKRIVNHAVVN
The experiment in a line: pull-down; His-KIF13A domains (motor, stalk-1, stalk-2, tail) on Ni-NTA beads incubated with HeLa cell lysate in RIPA buffer, 6-8 h, 4°C; immunoblot; only the target purified.

For assay [4], the target named is T1, 6xHis-Rab22A^WT (mouse). The experiment in a line: pull-down; His-Rab22A^WT on Ni-NTA beads preloaded with GDP (1 mM), incubated with melanocyte lysate in RIPA buffer, 6-8 h, 4°C; immunoblot; only the target purified.
The target in assay [5] is T3, 6xHis-Rab22A^Q64L (mouse) (UniProt P35285).
T3 sequence: T1 sequence with Q64L
The experiment in a line: pull-down; His-Rab22A^Q64L on Ni-NTA beads incubated with melanocyte lysates in RIPA buffer, 6-8 h, 4°C; immunoblot; no nucleotide loading told; only the target purified.

Substitutions are numbered along the chain they refer to. Results are given in words; binding and its absence hold for the method and conditions named. In cells and extracts the contact can be indirect. Some binding calls cover weakened binding; strength is not graded here. Where a sequence is shown, tags or fusion partners need not be part of it.

As to “TYRP1 (tyrosinase-related protein-1) (from UniProt P07147 25-537)”, the binding entry in assay [1] is given as “no binding”.

Regarding “BLOC-2 (biogenesis of lysosome-related organelles complex-2) (from UniProt Q969F9 1-1004; Q9UPZ3 1-1129; Q86YV9 1-775)”, the binding entry in assay [2] is on record as “binds”.

As for annexin A2 (from UniProt P07355 1-339), the binding entry in assay [3] was “binds”.

Consider “BLOC-2 (biogenesis of lysosome-related organelles complex-2), of melanocytes (from UniProt Q91VB4 1-1002; P59438 1-1126; Q8BLY7 1-805)”, for which the results for the binding result in assay [1], in assay [4] and in assay [5] were “binds”, “no binding (condition: His-Rab22A loaded with GDP)” and “binds”, respectively.

As for “BLOC-1 (biogenesis of lysosome-related organelles complex-1) (from UniProt Q9UL45 1-172; Q8TDH9 1-187; Q96EV8 1-351; Q9NUP1 1-217; O95295 1-136; P78537 1-153; Q6QNY1 1-142; Q6QNY0 1-202)”, the binding entry in assay [2] is “binds”.

Turning to KIF13A (from UniProt Q9H1H9 1-1805), the binding entry in assay [2] was “binds”.

B1: Rab38 (protein, UniProt Q8QZZ8 1-211)
chain: MQTPHKEHLYKLLVIGDLGVGKTSIIKRYVHQNFSSHYRATIGVDFALKVLHWDPETVVRLQLWDIAGQERFGNMTRVYYREAMGAFIVFDVTRPATFEAVAKWKNDLDSKLTLPNGKPVSVVLLANKCDQGKDVLMNNGLKMDQFCKEHGFVGWFETSAKENINIDEASRCLVKHILANECDLLESIEPDIVKPHLTSPKVVSCSGCAKS
Regarding B1, the binding result in assay [1] was “no binding”.
